The list shows a part of the results. The list includes weakly bound sequences.
The sequences below were run against T1, MBP-FoxP3dN (UniProt Q99JB6) (assay: PD-seq (MBP pull-down with sequencing)). Conditions: 20 mM Tris-HCl pH 7.5, 100 mM NaCl, 1.5 mM MgCl2, 0.4 uM protein, 0.1 uM dsDNA library, 30 min, room temperature, amylose pull-down; high values mean tight binding; double strand, one strand shown.
T1 sequence: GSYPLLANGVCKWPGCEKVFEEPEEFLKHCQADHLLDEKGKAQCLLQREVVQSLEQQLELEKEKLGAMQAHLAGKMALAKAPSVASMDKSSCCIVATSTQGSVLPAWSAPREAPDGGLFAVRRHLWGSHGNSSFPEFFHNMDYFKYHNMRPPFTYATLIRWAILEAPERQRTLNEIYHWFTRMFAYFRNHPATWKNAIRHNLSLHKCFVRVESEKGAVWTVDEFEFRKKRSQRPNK
Sequence “GATGATTGTTCTCCCAGCTGATGAATTCTGATCGTCGAGTAAACAAATTTTCCTAATCTTTCTGTTCAAGCGCCATCTAC” has a binding signal (RPM ratio (pull-down/input)) of 0.434.
“GATGATTGTTCTCCCAGCTGATGAATTAAGATGATCGAGTAAACAAATTTTCCTAATCTTTCTGTTCAAGCGCCATCTAC” showed a binding signal (RPM ratio (pull-down/input)) of 0.542.
“GATGATTGTTCTCCCAGCTGATGAATTACTGATGTCGAGTAAACAAATTTTCCTAATCTTTCTGTTCAAGCGCCATCTAC” showed a binding signal (RPM ratio (pull-down/input)) of 0.487.
Work on “GATGATTGTTCTCCCAGCTGATGAATTCCTAAGGTCGAGTAAACAAATTTTCCTAATCTTTCTGTTCAAGCGCCATCTAC” yielded a binding signal (RPM ratio (pull-down/input)) of 0.198.
For “GATGATTGTTCTCCCAGCTGATGAATTCTGCGGATCGAGTAAACAAATTTTCCTAATCTTTCTGTTCAAGCGCCATCTAC”, the binding signal (RPM ratio (pull-down/input)) was 0.373.
“GATGATTGTTCTCCCAGCTGATGAATTAGATGGTTCGAGTAAACAAATTTTCCTAATCTTTCTGTTCAAGCGCCATCTAC” gave a binding signal (RPM ratio (pull-down/input)) of 1.41.
“GATGATTGTTCTCCCAGCTGATGAATTAGCTAAGTCGAGTAAACAAATTTTCCTAATCTTTCTGTTCAAGCGCCATCTAC” showed a binding signal (RPM ratio (pull-down/input)) of 0.231.
Work on “GATGATTGTTCTCCCAGCTGATGAATTGCTCTTTTCGAGTAAACAAATTTTCCTAATCTTTCTGTTCAAGCGCCATCTAC” yielded a binding signal (RPM ratio (pull-down/input)) of 0.627.
“GATGATTGTTCTCCCAGCTGATGAATTGTATGGGTCGAGTAAACAAATTTTCCTAATCTTTCTGTTCAAGCGCCATCTAC” showed a binding signal (RPM ratio (pull-down/input)) of 1.19.
With “GATGATTGTTCTCCCAGCTGATGAATTATCGTCCTCGAGTAAACAAATTTTCCTAATCTTTCTGTTCAAGCGCCATCTAC” the binding signal (RPM ratio (pull-down/input)) was 0.481.
“GATGATTGTTCTCCCAGCTGATGAATTCGCTCTCTCGAGTAAACAAATTTTCCTAATCTTTCTGTTCAAGCGCCATCTAC” was tested, and the binding signal (RPM ratio (pull-down/input)) was 0.344.
With “GATGATTGTTCTCCCAGCTGATGAATTGCCAATGTCGAGTAAACAAATTTTCCTAATCTTTCTGTTCAAGCGCCATCTAC” the binding signal (RPM ratio (pull-down/input)) was 0.545.
Work on “GATGATTGTTCTCCCAGCTGATGAATTTTATAGCTCGAGTAAACAAATTTTCCTAATCTTTCTGTTCAAGCGCCATCTAC” yielded a binding signal (RPM ratio (pull-down/input)) of 0.545.
Work on “GATGATTGTTCTCCCAGCTGATGAATTAAGTTCGTCGAGTAAACAAATTTTCCTAATCTTTCTGTTCAAGCGCCATCTAC” yielded a binding signal (RPM ratio (pull-down/input)) of 0.524.
“GATGATTGTTCTCCCAGCTGATGAATTGTAGTCTTCGAGTAAACAAATTTTCCTAATCTTTCTGTTCAAGCGCCATCTAC” showed a binding signal (RPM ratio (pull-down/input)) of 1.11.
Work on “GATGATTGTTCTCCCAGCTGATGAATTCTCCTATTCGAGTAAACAAATTTTCCTAATCTTTCTGTTCAAGCGCCATCTAC” yielded a binding signal (RPM ratio (pull-down/input)) of 0.285.
“GATGATTGTTCTCCCAGCTGATGAATTCTAGCTATCGAGTAAACAAATTTTCCTAATCTTTCTGTTCAAGCGCCATCTAC” showed a binding signal (RPM ratio (pull-down/input)) of 0.717.
In the case of “GATGATTGTTCTCCCAGCTGATGAATTTGTAAATTCGAGTAAACAAATTTTCCTAATCTTTCTGTTCAAGCGCCATCTAC”, the binding signal (RPM ratio (pull-down/input)) is reported as 1.23.
“GATGATTGTTCTCCCAGCTGATGAATTCTTGTCGTCGAGTAAACAAATTTTCCTAATCTTTCTGTTCAAGCGCCATCTAC” was tested, and the binding signal (RPM ratio (pull-down/input)) was 0.447.
With “GATGATTGTTCTCCCAGCTGATGAATTGGCAAGGTCGAGTAAACAAATTTTCCTAATCTTTCTGTTCAAGCGCCATCTAC” the binding signal (RPM ratio (pull-down/input)) was 0.314.
In the case of “GATGATTGTTCTCCCAGCTGATGAATTTCGGAGCTCGAGTAAACAAATTTTCCTAATCTTTCTGTTCAAGCGCCATCTAC”, the binding signal (RPM ratio (pull-down/input)) is reported as 0.247.
“GATGATTGTTCTCCCAGCTGATGAATTATCCTGCTCGAGTAAACAAATTTTCCTAATCTTTCTGTTCAAGCGCCATCTAC” was tested, and the binding signal (RPM ratio (pull-down/input)) was 0.234.
With “GATGATTGTTCTCCCAGCTGATGAATTGGCTGGCTCGAGTAAACAAATTTTCCTAATCTTTCTGTTCAAGCGCCATCTAC” the binding signal (RPM ratio (pull-down/input)) was 0.35.
“GATGATTGTTCTCCCAGCTGATGAATTGTTTTCTTCGAGTAAACAAATTTTCCTAATCTTTCTGTTCAAGCGCCATCTAC” was tested, and the binding signal (RPM ratio (pull-down/input)) was 4.15.
In the case of “GATGATTGTTCTCCCAGCTGATGAATTCGCGATTTCGAGTAAACAAATTTTCCTAATCTTTCTGTTCAAGCGCCATCTAC”, the binding signal (RPM ratio (pull-down/input)) is reported as 0.635.
For “GATGATTGTTCTCCCAGCTGATGAATTCGACCACTCGAGTAAACAAATTTTCCTAATCTTTCTGTTCAAGCGCCATCTAC”, the binding signal (RPM ratio (pull-down/input)) was 0.416.
For “GATGATTGTTCTCCCAGCTGATGAATTGATTACCTCGAGTAAACAAATTTTCCTAATCTTTCTGTTCAAGCGCCATCTAC”, the binding signal (RPM ratio (pull-down/input)) was 1.21.
“GATGATTGTTCTCCCAGCTGATGAATTACACGTTTCGAGTAAACAAATTTTCCTAATCTTTCTGTTCAAGCGCCATCTAC” showed a binding signal (RPM ratio (pull-down/input)) of 0.631.
“GATGATTGTTCTCCCAGCTGATGAATTTCGAGATTCGAGTAAACAAATTTTCCTAATCTTTCTGTTCAAGCGCCATCTAC” was tested, and the binding signal (RPM ratio (pull-down/input)) was 0.361.
In the case of “GATGATTGTTCTCCCAGCTGATGAATTAGCTGGATCGAGTAAACAAATTTTCCTAATCTTTCTGTTCAAGCGCCATCTAC”, the binding signal (RPM ratio (pull-down/input)) is reported as 0.259.
With “GATGATTGTTCTCCCAGCTGATGAATTTGTGCGGTCGAGTAAACAAATTTTCCTAATCTTTCTGTTCAAGCGCCATCTAC” the binding signal (RPM ratio (pull-down/input)) was 1.8.
“GATGATTGTTCTCCCAGCTGATGAATTAGCTGCCTCGAGTAAACAAATTTTCCTAATCTTTCTGTTCAAGCGCCATCTAC” was tested, and the binding signal (RPM ratio (pull-down/input)) was 0.845.
“GATGATTGTTCTCCCAGCTGATGAATTAATTGCCTCGAGTAAACAAATTTTCCTAATCTTTCTGTTCAAGCGCCATCTAC” gave a binding signal (RPM ratio (pull-down/input)) of 1.83.
With “GATGATTGTTCTCCCAGCTGATGAATTACTAGCATCGAGTAAACAAATTTTCCTAATCTTTCTGTTCAAGCGCCATCTAC” the binding signal (RPM ratio (pull-down/input)) was 1.06.
“GATGATTGTTCTCCCAGCTGATGAATTTCATCTTTCGAGTAAACAAATTTTCCTAATCTTTCTGTTCAAGCGCCATCTAC” showed a binding signal (RPM ratio (pull-down/input)) of 0.497.
“GATGATTGTTCTCCCAGCTGATGAATTCCCGGAGTCGAGTAAACAAATTTTCCTAATCTTTCTGTTCAAGCGCCATCTAC” was tested, and the binding signal (RPM ratio (pull-down/input)) was 0.177.
“GATGATTGTTCTCCCAGCTGATGAATTGATTTACTCGAGTAAACAAATTTTCCTAATCTTTCTGTTCAAGCGCCATCTAC” was tested, and the binding signal (RPM ratio (pull-down/input)) was 3.56.
Work on “GATGATTGTTCTCCCAGCTGATGAATTACCACCCTCGAGTAAACAAATTTTCCTAATCTTTCTGTTCAAGCGCCATCTAC” yielded a binding signal (RPM ratio (pull-down/input)) of 0.312.
In the case of “GATGATTGTTCTCCCAGCTGATGAATTCAGTAGCTCGAGTAAACAAATTTTCCTAATCTTTCTGTTCAAGCGCCATCTAC”, the binding signal (RPM ratio (pull-down/input)) is reported as 0.763.
In the case of “GATGATTGTTCTCCCAGCTGATGAATTAAGGATATCGAGTAAACAAATTTTCCTAATCTTTCTGTTCAAGCGCCATCTAC”, the binding signal (RPM ratio (pull-down/input)) is reported as 0.372.

— paper PMC12820563
